The whole screen tested about 340,000 compounds, of which about 12,000 (3.5%) were called active. The inconclusive results got no clear call from the source; some entries with a clear call stand among them for comparison. Calls come from the whole dose curve; as a rule, active = well fitted inhibition curve with a large enough effect; inconclusive = small, poorly fitted or top-dose-only effect, or another doubt; inactive = no such curve, though single readings can be large or run the other way. No potency is given beside an inconclusive call; the fits are too rough.
assay: qHTS Assay for Inhibitors of Hepatitis C Virus (HCV); details: Huh7.5.1 HCVcc-Cre (HCVcc is cell-culture hepatitis C virus) infection, luciferase reporter, 44 h; activity change, negative = inhibition: at 41.8 µM (top of the series) unless noted
Summary of the method: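 Infectious HCVcc-Cre (~0.5 moi) was added to cells just after compound, with cells seeded 4 h earlier at 1,000 per well. Luciferase activity after 44 h culture reported infection; substrate was incubated 15 min at room temperature before reading.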
% is set by controls: 0 for no effect and ±100 for the full control effect; potency is the fitted concentration of half-maximal effect; tags give direction and shape of the fitted curve.

| Compound | activity change, negative = inhibition | Potency |
| --- | --- | --- |
| CCCN1CNc2c(c(=O)[nH]c(=S)n2CCc2ccccc2)C1 | inactive: -28.1% |  |
| O=C(Nc1nc2nc(-c3ccccc3)cc(-c3ccccc3)n2n1)c1ccco1 |  | inconclusive [inhibitor, partial curve] |
| O=C(c1cc(C(=O)NCc2ccccc2)c(=O)n(Cc2ccccc2)c1)c1cc(Cl)ccc1O |  | inconclusive [inhibitor, single point] |
| O=C(NCc1cccs1)c1ccc(CS(=O)(=O)c2ccc(Cl)cc2)o1 | inactive: 14.7% |  |
| O=C(CC(c1ccccc1)c1cc(Br)ccc1O)N1CCCC1 (centres undefined) |  | inconclusive [inhibitor, single point] |
| COc1cccc(=O)c2c(C)n(C)c(C)c12 |  | inconclusive [inhibitor, single point] |
| COC1C=CC=C(C)C(=O)NC2=CC(=O)C(N)=C(CC(C)CC(OC)C(O)C(C)C=C(C)C1OC(N)=O)C2=O (centres undefined) |  | inconclusive [inhibitor, partial curve] |
| COC(=O)[C@@]12CCCN1[C@H](c1ccc(-c3ccc(OC)cc3)cc1)[C@@H]1C(=O)N(C)C(=O)[C@@H]12 |  | inconclusive [inhibitor, single point] |
| O=C(NCCCN1CCOCC1)c1cn(-c2ccccc2)nc1-c1ccc(Br)cc1 | inactive: 7.59% |  |
| COc1ccc(CNC(=S)NCc2ccc(Cl)cc2)cc1OC |  | inconclusive [inhibitor, partial curve] |
| COc1cc(OC)c(OC)cc1CNC(=O)c1ccc(S(=O)(=O)N2CCCCC2)cc1 |  | inconclusive [inhibitor, single point] |
| CC(C)c1ccc(O)c(NC(=S)NC(=O)c2cccnc2)c1 | inactive: -9.51% |  |
| O=C(CN1C(=O)S/C(=C\c2ccc(Cl)cc2)C1=O)NC1C=CS(=O)(=O)C1 (centres undefined) |  | inconclusive [inhibitor, partial curve] |
| COc1ccc(CCNC(=O)c2cc(S(=O)(=O)N3CCCC3)cn2C)cc1OC |  | inconclusive [inhibitor, full curve] |
| COc1ccc(CNC(=O)C(c2ccc(C)o2)N(Cc2cccs2)C(=O)Cc2cccs2)cc1 (centres undefined) |  | active: 11.2 µM |
| COc1ccc(CCc2nnc(CCC(=O)NCc3cc(C(C)C)no3)o2)cc1 | inactive: -6.53% |  |
| O=C1CCCc2c1cc(-c1ccccc1)n2-c1ccc(O)cc1 | inactive: -15.4% |  |
| CCOC(=O)c1ccc(NC(=O)CSc2nc3c(c(=O)n2CC)SC(C)C3)cc1 (centres undefined) |  | inconclusive [inhibitor, single point] |
| COc1cccc(/C=N/NC(=O)CSc2nnc(C)n2-c2ccccc2)c1OC |  | inconclusive [inhibitor, partial curve] |
| O=C(CCl)N(CCCNC(=O)C(F)(F)F)c1ccc([N+](=O)[O-])cc1 |  | inconclusive [inhibitor, single point] |
| O=c1cc(-c2ccccc2)c2ccccc2[nH]1 |  | inconclusive [inhibitor, single point] |
| Cc1ccc(C(=O)N/N=C/c2ccc([N+](=O)[O-])s2)cc1 |  | active: 2.82 µM |

| Compound | activity change, negative = inhibition | Potency |
| --- | --- | --- |
| O=C(OCc1nc2ccsc2c(=O)[nH]1)c1ccc(Cl)s1 | inactive: 1.18% |  |
| COc1ccc(C(CNC(=O)c2ccc(C)c(S(=O)(=O)Nc3ccccc3OC)c2)N2CCCC2)cc1 (centres undefined) | inactive: -20.4% |  |
| O=C(COc1ccc(F)cc1Cl)Nc1nc(-c2ccccn2)cs1 |  | inconclusive [inhibitor, single point] |
| CCOc1ccc(NC(=O)/C=C/c2ccccc2)c([N+](=O)[O-])c1 |  | inconclusive [inhibitor, full curve, poor fit] |
| COc1cc(/C=C(\C#N)c2ccccn2)ccc1OCc1ccccc1Cl |  | inconclusive [inhibitor, partial curve] |
| COc1ccc(N(C(=O)c2ccco2)C(C(=O)NC2CCCC2)c2ccncc2)cc1 (centres undefined) |  | inconclusive [inhibitor, single point] |
| CCC(c1nnnn1Cc1ccco1)N(Cc1cc2cc(C)cc(C)c2[nH]c1=O)CC1CCCO1 (centres undefined) |  | inconclusive [inhibitor, single point] |
| CC(=O)Nc1cc2c(cc1Br)-c1ccccc1C2 |  | inconclusive [inhibitor, single point] |
| COc1ccc(Cl)cc1-n1c(C)cc(C(=O)OCC(=O)N2CC(=O)Nc3ccccc32)c1C |  | inconclusive [inhibitor, partial curve] |
| CC(=O)NC(Cc1ccccc1C)C(=O)NC1CCN(C(=O)c2ccc(C)cc2)CC1 (centres undefined) | inactive: 4.41% |  |
| CCOC(=O)c1c(C)[nH]c(C)c1C(=O)COC(=O)c1ccc(Cl)c(S(=O)(=O)NCc2ccccc2)c1 |  | active: 7.08 µM |
| Cc1ccccc1C(=O)c1cccn1CC(=O)NCc1ccc(Cl)cc1 |  | inconclusive [inhibitor, full curve, poor fit] |
| CCC1CN(C(=O)NCc2cccc(OC)c2)c2cc(Cl)ccc2O1 (centres undefined) |  | active: 5.62 µM |
| CCc1cc(=O)oc2c(C)c(OCC(=O)N3CCC[C@@H]3C(=O)O)ccc12 |  | inconclusive [inhibitor, partial curve] |
| CN1[C@@H](CC(=O)c2ccccc2)CCC[C@H]1C[C@H](O)c1ccccc1 |  | inconclusive [inhibitor, partial curve, poor fit] |
| CC(C)(C)c1ccc(OCc2ccc(C(=O)N/N=C/c3ccc(O)c(O)c3)cc2)cc1 |  | active: 5.62 µM |
| CCN1CCn2c3c(c4cc(C)ccc42)CCCC31 (centres undefined) |  | inconclusive [inhibitor, single point] |
| COc1ccc(C(=O)CNc2ccccc2C#N)cc1 | inactive: -8.25% |  |
| CC(=O)Nc1ccc(C2=NN(CC#N)C(=O)SC2)cc1 | inactive: -13.2% |  |
| Cc1cccc(C)c1OC(=O)Cc1ccccc1 | inactive: -15.2% |  |
| CCCN(CC1CC1)C(=O)COC(=O)c1ccc(CNS(=O)(=O)c2ccc(F)c(Cl)c2)cc1 |  | inconclusive [inhibitor, single point] |
| CC(=O)Nc1ccc(NC(=O)COc2cccc3c2OC(C)(C)C3)cc1 | inactive: -8.12% |  |

— PubChem BioAssay AID651820 (National Center for Advancing Translational Sciences (NCATS), 2012)
